Experimental data published in PubChem BioAssay AID720709 (National Center for Advancing Translational Sciences (NCATS), 2013).
The campaign covered roughly 360,000 compounds. About 520 (0.14%) were called active. The shares of active, inactive and inconclusive entries below differ from those in the screen. The call rests on the fitted dose curve; in most records, active means well fitted inhibition curve with a large enough effect; inconclusive means small, poorly fitted or top-dose-only effect; inactive means no such curve, though single readings can be large or run the other way. Potencies of inconclusive entries are doubtful fits and often do not repeat.

target: Rap guanine nucleotide exchange factor 3 (Homo sapiens) (UniProt O95398); assay: qHTS for Antagonist of cAMP-regulated guanine nucleotide exchange factor 3 (EPAC1): primary screen; conditions: EPAC1 GEF assay, Rap1b-BODIPY-GDP exchange fluorescence; series mostly up to 115 µM; further: nearly all actives have a fitted effect of over 50% in size
UniProt O95398, sequence (O95398 whole entry, looked up): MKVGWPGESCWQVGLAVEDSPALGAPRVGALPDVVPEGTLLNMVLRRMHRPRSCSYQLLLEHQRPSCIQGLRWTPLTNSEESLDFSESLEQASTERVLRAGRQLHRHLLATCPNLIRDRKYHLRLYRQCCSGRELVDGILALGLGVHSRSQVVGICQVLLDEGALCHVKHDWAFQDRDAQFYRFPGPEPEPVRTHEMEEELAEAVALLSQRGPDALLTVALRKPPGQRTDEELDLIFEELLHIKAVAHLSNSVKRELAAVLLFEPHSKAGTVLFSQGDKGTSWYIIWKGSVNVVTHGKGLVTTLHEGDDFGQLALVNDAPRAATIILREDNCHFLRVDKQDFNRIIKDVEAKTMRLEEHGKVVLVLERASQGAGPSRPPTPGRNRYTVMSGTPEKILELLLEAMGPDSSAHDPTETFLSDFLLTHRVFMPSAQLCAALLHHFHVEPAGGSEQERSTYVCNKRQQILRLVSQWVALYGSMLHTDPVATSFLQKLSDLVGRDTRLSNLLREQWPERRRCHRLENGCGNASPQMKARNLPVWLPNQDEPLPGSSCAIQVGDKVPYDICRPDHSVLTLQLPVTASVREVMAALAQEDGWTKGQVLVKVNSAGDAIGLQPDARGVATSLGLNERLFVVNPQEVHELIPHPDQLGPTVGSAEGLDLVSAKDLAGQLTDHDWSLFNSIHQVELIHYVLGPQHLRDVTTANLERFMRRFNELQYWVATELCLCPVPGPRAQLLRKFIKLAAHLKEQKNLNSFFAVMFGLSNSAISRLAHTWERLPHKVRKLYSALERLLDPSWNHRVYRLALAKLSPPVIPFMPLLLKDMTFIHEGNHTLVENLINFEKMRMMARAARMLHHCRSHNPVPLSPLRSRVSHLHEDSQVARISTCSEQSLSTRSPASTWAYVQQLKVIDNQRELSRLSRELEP
Potency means the concentration at half of the fitted maximal effect; tags describe the fitted curve by direction and shape.

Potency, inconclusive:
CCn1c(CSc2nc3ccccc3s2)nnc1SCC(=O)c1ccc(O)c(O)c1 8.91 µM [inhibitor, full curve]
CN(c1ccccc1)S(=O)(=O)c1cccc(NC(=O)COc2ccccc2)c1 7.08 µM [inhibitor, full curve, poor fit]
O=C(/C=C/c1ccc(OC(F)F)cc1)OCC(=O)N1CCN(C(=O)c2ccco2)CC1 50.1 µM [inhibitor, partial curve]
O=S(=O)(c1cccc2nsnc12)N1CCN(Cc2ccccc2)CC1 39.8 µM [inhibitor, single point]
COc1cccc(C(=O)Nc2nnc(-c3ccccc3)s2)c1OC 25.1 µM [inhibitor, single point]
Cc1cc2c(cc1S(=O)(=O)Nc1cccc(F)c1C)NC(=O)CO2 100 µM [inhibitor, single point]
COc1ccccc1N1CCN(CC(C)N(C(=O)C2CCCCC2)c2ccccn2)CC1 (configuration not stated) 39.8 µM [inhibitor, partial curve, poor fit]
CC1CN(C(=O)c2cc(-c3ccc(Cl)s3)nc3ccccc23)CC(C)O1 (configuration not stated) 89.1 µM [inhibitor, single point]
CCN(CC)c1ccc(S(=O)(=O)N2CCOCC2)cc1NC(=O)Cn1nc(C)c([N+](=O)[O-])c1C 3.98 µM [inhibitor, full curve]
CS/C(=N/S(=O)(=O)c1ccc(C)cc1)c1ccccc1 100 µM [inhibitor, single point]
COc1ccc2cc(C(=O)N3CCN(C)CC3)[nH]c2c1 50.1 µM [inhibitor, partial curve]
COc1ccc(-c2cn[nH]c2-c2ccc(OCc3ccccc3F)cc2O)cc1OC 11.2 µM [inhibitor, full curve, poor fit]
O=C(Nc1cc([N+](=O)[O-])ccc1O)c1ccc2c(c1)C(=O)N(Cc1ccco1)C2=O 56.2 µM [inhibitor, partial curve]
O=C(COC(=O)CCC1CCCC1)Nc1ccccc1OC(F)F 50.1 µM [inhibitor, partial curve]
Cc1ccc(C(=O)Nc2ccccc2[N+](=O)[O-])cc1S(=O)(=O)N1CCOCC1 89.1 µM [inhibitor, partial curve]
C[c-]1[c-](C)[c-](C)[c-](C)[c-]1C.[Fe].c1cc2nccc(N3CCCC3)[c-]2c1 (configuration not stated) 79.4 µM [inhibitor, partial curve]
C#CCn1c(=NC(=O)CSC(C)=O)sc2cc(F)ccc21 89.1 µM [inhibitor, single point]
C/C(=N\NC(=O)c1ccoc1C)c1ccccc1O 12.6 µM [inhibitor, full curve, poor fit]
O=C(NCc1cccs1)c1ccc(CS(=O)Cc2cccc(Cl)c2)o1 (configuration not stated) 89.1 µM [inhibitor, single point]
CCCCNC(=O)CS(=O)Cc1nc(-c2ccc(C)cc2)oc1C (configuration not stated) 89.1 µM [inhibitor, partial curve]
CCOc1ccc(CC(=O)N/N=C(\C)c2cccnc2)cc1OCC 3.55 µM [inhibitor, full curve, poor fit]
CC(=O)Oc1ccc(C(=O)NCCc2ccccc2)cc1 2.82 µM [inhibitor, full curve, poor fit]
COc1ccc(C2=NN(c3nc(-c4ccccc4)c(CC(=O)O)s3)C(c3ccco3)C2)cc1 (configuration not stated) 56.2 µM [inhibitor, single point]
O=C(CSc1ccc2ccccc2c1)Nc1ccc(S(=O)(=O)Nc2nccs2)cc1 79.4 µM [inhibitor, partial curve]
O=C(CSc1c2c(nc3cc(Cl)ccc13)CCCC2)NCc1ccco1 89.1 µM [inhibitor, single point]
CCOC(=O)C1=C(O)/C(=C/c2ccc(CNC(=O)C(=O)Nc3ccc(C)cc3)o2)N=C1C 31.6 µM [inhibitor, partial curve, poor fit]
Cc1cc(C)c2c(c1)/C(=N/Nc1ccc(S(N)(=O)=O)cc1[N+](=O)[O-])CCC2 17.8 µM [inhibitor, partial curve]
CCCCCCN1C[C@H](n2cc(COC(=O)c3ccccc3)nn2)[C@@H](O)C[C@@H]1c1ccc(Cl)cc1 70.8 µM [inhibitor, single point]
Nc1ccc(-c2nnn(CC(=O)N3CCCCC3)n2)cc1 25.1 µM [inhibitor, partial curve]

Potency, inactive:
COc1ccc(N(CC(=O)N/N=C(\C)c2ccc(OC)c(OC)c2)S(=O)(=O)c2ccccc2)cc1
CCN(Cc1ccccc1)C(=O)CCc1nc(CN2CCN(C(=O)c3ccc([N+](=O)[O-])cc3)CC2)no1
Cc1cc(=O)oc(C)c1C(=O)O
Fc1ccc(NC(=S)N2CCN(c3ccccn3)CC2)cc1Cl
O=c1[nH][nH]c(C(F)(F)F)c1C=Nc1ccccc1
CCN1CNC(=S)N(c2cccc(C)c2)C1
N=c1c(S(=O)(=O)c2ccc(Br)cc2)cc2c(=O)n3ccccc3nc2n1C1CCCC1
Fc1ccc(N2N=C(c3cccs3)CC2c2ccccc2)cc1 (configuration not stated)
CCC(C(=O)OCC(=O)Nc1ccc2[nH]c(=O)[nH]c2c1)c1ccccc1 (configuration not stated)
COc1ccc(CN(C)C(=O)c2[nH]c(C)c(C(C)=O)c2C)cc1F
O=C(COC(=O)c1cnc(Cl)c(Cl)c1)Nc1ccc(S(=O)(=O)N2CCCC2)cc1
CC(CN1CC(=O)NC(=O)C1)N1CC(=O)NC(=O)C1 (configuration not stated)
Cc1cccc([C@H]2[C@@H]3C=CCC[C@@H]3C(=O)N2Cc2ccccc2)c1
